# Results: the supplement of paper PMC8728848
# The list shows a part of the results.
# B1: Cohesin-hMARCO (Homo sapiens) (protein)
# chain: LDDLDAVRIKVDTVNAKPGDTVRIPVRFSGIPSKGIANCDFVYSYDPNVLEIIEIEPGDIIVDPNPDKSFDTAVYPDRKIIVFLFAEDSGTGAYAITKDGVFATIVAKVKEGAPNGLSVIKFVEVGGFANNDLVEQKTQFFDGGANVGDTTEPATPTTPVTTPTTTDDLDAASVRIVGSSNRGRAEVYYSGTWGTICDDEWQNSDAIVFCRMLGYSKGRALYKVGAGTGQIWLDNVQCRGTESTLWSCTKNSWGHHDCSHEEDAGVECSVHHHHHH
# What was measured:
# Test in all cases: glycan array binding signal (z-score within array); higher = stronger binding
# Conditions in all cases: glycan notation: IUPAC condensed, linker removed
# [1] = target: Gal(b1-3)GalNAc(b1-3)Gal(a1-4)Gal(b1-4)Glc
# Summary of the method: (§1)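 Glycan array binding is given as a within-array Z-score, which can be read as non-binding when negative. The arrays, 3228 of them, came from the Consortium for Functional Glycomics database and were retained only where the protein sequence was available. Z-scores were averaged across arrays of the same protein sequence at different concentrations or buffers and across linkers.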
# [2] = target: Gal(b1-3)GalNAc(b1-4)Gal(b1-4)Glc
# Summary of the method: as §1
# [3] = target: Gal(b1-3)GalNAc(b1-4)[Neu5Ac(a2-3)]Gal(b1-4)Glc
# Summary of the method: as §1
# [4] = target: Gal(b1-3)GlcNAc
# Summary of the method: as §1
# [5] = target: Gal(b1-3)GlcNAc(a1-3)Gal(b1-4)GlcNAc
# Summary of the method: as §1
# [6] = target: Gal(b1-3)GlcNAc(a1-6)Gal(b1-4)GlcNAc
# Summary of the method: as §1
# [7] = target: Gal(b1-3)GlcNAc(b1-2)Man
# Summary of the method: as §1
# [8] = target: Gal(b1-3)GlcNAc(b1-2)Man(a1-3)[Gal(b1-3)GlcNAc(b1-2)Man(a1-6)]Man(b1-4)GlcNAc(b1-4)GlcNAc
# Summary of the method: as §1
# [9] = target: Gal(b1-3)GlcNAc(b1-2)Man(a1-3)[Gal(b1-3)GlcNAc(b1-2)Man(a1-6)]Man(b1-4)GlcNAc(b1-4)[Fuc(a1-6)]GlcNAc
# Summary of the method: as §1
# [10] = target: Gal(b1-3)GlcNAc(b1-2)Man(a1-3)[GlcNAc(b1-4)][Gal(b1-3)GlcNAc(b1-2)Man(a1-6)]Man(b1-4)GlcNAc(b1-4)GlcNAc
# Summary of the method: as §1
# [11] = target: Gal(b1-3)GlcNAc(b1-2)[Gal(b1-3)GlcNAc(b1-6)]Man(a1-6)[Gal(b1-3)GlcNAc(b1-2)Man(a1-3)]Man(b1-4)GlcNAc(b1-4)GlcNAc
# Summary of the method: as §1
# [12] = target: Gal(b1-3)GlcNAc(b1-3)Gal(b1-3)GlcNAc
# Summary of the method: as §1
# [13] = target: Gal(b1-3)GlcNAc(b1-3)Gal(b1-4)Glc
# Summary of the method: as §1
# [14] = target: Gal(b1-3)GlcNAc(b1-3)Gal(b1-4)GlcNAc
# Summary of the method: as §1
# [15] = target: Gal(b1-3)GlcNAc(b1-3)Gal(b1-4)GlcNAc(b1-2)Man(a1-3)[Gal(b1-3)GlcNAc(b1-3)Gal(b1-4)GlcNAc(b1-2)Man(a1-6)]Man(b1-4)GlcNAc(b1-4)GlcNAc
# Summary of the method: as §1
# [16] = target: Gal(b1-3)GlcNAc(b1-3)Gal(b1-4)GlcNAc(b1-2)[Gal(b1-3)GlcNAc(b1-3)Gal(b1-4)GlcNAc(b1-6)]Man(a1-6)[Gal(b1-3)GlcNAc(b1-3)Gal(b1-4)GlcNAc(b1-2)Man(a1-3)]Man(b1-4)GlcNAc(b1-4)[Fuc(a1-6)]GlcNAc
# Summary of the method: as §1
# [17] = target: Gal(b1-3)GlcNAc(b1-3)Gal(b1-4)GlcNAc(b1-3)Gal(b1-4)GlcNAc(b1-2)[Gal(b1-3)GlcNAc(b1-3)Gal(b1-4)GlcNAc(b1-3)Gal(b1-4)GlcNAc(b1-6)]Man(a1-6)[Gal(b1-3)GlcNAc(b1-3)Gal(b1-4)GlcNAc(b1-3)Gal(b1-4)GlcNAc(b1-2)Man(a1-3)]Man(b1-4)GlcNAc(b1-4)[Fuc(a1-6)]GlcNAc
# Summary of the method: as §1
# [18] = target: Gal(b1-3)GlcNAc(b1-3)Gal(b1-4)GlcNAc(b1-6)[Gal(b1-3)GlcNAc(b1-3)]Gal(b1-4)Glc
# Summary of the method: as §1
# [19] = target: Gal(b1-3)GlcNAc(b1-3)Gal(b1-4)[Fuc(a1-3)]GlcNAc
# Summary of the method: as §1
# [20] = target: Gal(b1-3)GlcNAc(b1-3)Gal(b1-4)[Fuc(a1-3)]GlcNAc(b1-6)[Gal(b1-3)GlcNAc(b1-3)]Gal(b1-4)Glc
# Summary of the method: as §1
# [21] = target: Gal(b1-3)GlcNAc(b1-3)GalNAc
# Summary of the method: as §1
# [22] = target: Gal(b1-3)GlcNAc(b1-6)Gal(b1-4)GlcNAc
# Summary of the method: as §1
# [23] = target: Gal(b1-3)GlcNAc(b1-6)GalNAc
# Summary of the method: as §1
# [24] = target: Gal(b1-3)GlcNAc(b1-6)[Gal(b1-3)]GalNAc
# Summary of the method: as §1
# [25] = target: Gal(b1-3)GlcNAc6S
# Summary of the method: as §1
# [26] = target: Gal(b1-3)[Fuc(a1-4)]GlcNAc
# Summary of the method: as §1
# [27] = target: Gal(b1-3)[Fuc(a1-4)]GlcNAc(b1-2)Man
# Summary of the method: as §1
# [28] = target: Gal(b1-3)[Fuc(a1-4)]GlcNAc(b1-2)Man(a1-3)[Gal(b1-3)[Fuc(a1-4)]GlcNAc(b1-2)Man(a1-6)]Man(b1-4)GlcNAc(b1-4)[Fuc(a1-6)]GlcNAc
# Summary of the method: as §1
# [29] = target: Gal(b1-3)[Fuc(a1-4)]GlcNAc(b1-3)Gal(b1-3)[Fuc(a1-4)]GlcNAc
# Summary of the method: as §1
# [30] = target: Gal(b1-3)[Fuc(a1-4)]GlcNAc(b1-3)Gal(b1-4)[Fuc(a1-3)]GlcNAc
# Summary of the method: as §1
# [31] = target: Gal(b1-3)[Fuc(a1-4)]GlcNAc(b1-6)GalNAc
# Summary of the method: as §1
# [32] = target: Gal(b1-3)[GlcNAc(b1-6)]GalNAc
# Summary of the method: as §1
# [33] = target: Gal(b1-3)[Neu5Ac(a2-6)]GalNAc
# Summary of the method: as §1
# [34] = target: Gal(b1-3)[Neu5Ac(a2-6)]GlcNAc(b1-4)Gal(b1-4)Glc
# Summary of the method: as §1
# [35] = target: Gal(b1-3)[Neu5Ac(b2-6)]GalNAc
# Summary of the method: as §1
# [36] = target: Gal(b1-4)Gal
# Summary of the method: as §1
# [37] = target: Gal(b1-4)GalNAc(a1-3)[Fuc(a1-2)]Gal(b1-4)GlcNAc
# Summary of the method: as §1
# [38] = target: Gal(b1-4)GalNAc(b1-3)[Fuc(a1-2)]Gal(b1-4)GlcNAc
# Summary of the method: as §1
binder,measurement,setting,value
B1,glycan array binding signal (z-score),[1],-0.312
same,glycan array binding signal (z-score),[2],-0.42
same,glycan array binding signal (z-score),[3],-0.42
same,glycan array binding signal (z-score),[4],-0.318
same,glycan array binding signal (z-score),[5],-0.433
same,glycan array binding signal (z-score),[6],-0.309
same,glycan array binding signal (z-score),[7],-0.288
same,glycan array binding signal (z-score),[8],-0.103
same,glycan array binding signal (z-score),[9],-0.443
same,glycan array binding signal (z-score),[10],-0.377
same,glycan array binding signal (z-score),[11],-0.44
same,glycan array binding signal (z-score),[12],-0.434
same,glycan array binding signal (z-score),[13],-0.566
same,glycan array binding signal (z-score),[14],-0.396
same,glycan array binding signal (z-score),[15],0.015
same,glycan array binding signal (z-score),[16],-0.029
same,glycan array binding signal (z-score),[17],-0.216
same,glycan array binding signal (z-score),[18],-0.529
same,glycan array binding signal (z-score),[19],-0.35
same,glycan array binding signal (z-score),[20],-0.502
same,glycan array binding signal (z-score),[21],-0.344
same,glycan array binding signal (z-score),[22],-0.239
same,glycan array binding signal (z-score),[23],1.7
same,glycan array binding signal (z-score),[24],-0.319
same,glycan array binding signal (z-score),[25],-0.327
same,glycan array binding signal (z-score),[26],0.355
same,glycan array binding signal (z-score),[27],-0.403
same,glycan array binding signal (z-score),[28],0.041
same,glycan array binding signal (z-score),[29],5.33
same,glycan array binding signal (z-score),[30],-0.252
same,glycan array binding signal (z-score),[31],-0.154
same,glycan array binding signal (z-score),[32],-0.335
same,glycan array binding signal (z-score),[33],-0.392
same,glycan array binding signal (z-score),[34],-0.257
same,glycan array binding signal (z-score),[35],-0.305
same,glycan array binding signal (z-score),[36],0.028
same,glycan array binding signal (z-score),[37],-0.348
same,glycan array binding signal (z-score),[38],-0.311
